About 14,000 (4.5%) of roughly 310,000 compounds showed an effect of 50% or more. Effects have a minus sign here. The list shows a part of the results.
The compounds below were run against human ether-à-go-go-related gene (hERG) potassium channel (human, UniProt Q12809) (assay: primary screen, population patch clamp on CHO cells stably expressing hERG).
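Also: peak tail current of the secondary pulse compared with the same well before compound.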

human ether-à-go-go-related gene (hERG) potassium channel, sequence (Q12809 whole entry, looked up): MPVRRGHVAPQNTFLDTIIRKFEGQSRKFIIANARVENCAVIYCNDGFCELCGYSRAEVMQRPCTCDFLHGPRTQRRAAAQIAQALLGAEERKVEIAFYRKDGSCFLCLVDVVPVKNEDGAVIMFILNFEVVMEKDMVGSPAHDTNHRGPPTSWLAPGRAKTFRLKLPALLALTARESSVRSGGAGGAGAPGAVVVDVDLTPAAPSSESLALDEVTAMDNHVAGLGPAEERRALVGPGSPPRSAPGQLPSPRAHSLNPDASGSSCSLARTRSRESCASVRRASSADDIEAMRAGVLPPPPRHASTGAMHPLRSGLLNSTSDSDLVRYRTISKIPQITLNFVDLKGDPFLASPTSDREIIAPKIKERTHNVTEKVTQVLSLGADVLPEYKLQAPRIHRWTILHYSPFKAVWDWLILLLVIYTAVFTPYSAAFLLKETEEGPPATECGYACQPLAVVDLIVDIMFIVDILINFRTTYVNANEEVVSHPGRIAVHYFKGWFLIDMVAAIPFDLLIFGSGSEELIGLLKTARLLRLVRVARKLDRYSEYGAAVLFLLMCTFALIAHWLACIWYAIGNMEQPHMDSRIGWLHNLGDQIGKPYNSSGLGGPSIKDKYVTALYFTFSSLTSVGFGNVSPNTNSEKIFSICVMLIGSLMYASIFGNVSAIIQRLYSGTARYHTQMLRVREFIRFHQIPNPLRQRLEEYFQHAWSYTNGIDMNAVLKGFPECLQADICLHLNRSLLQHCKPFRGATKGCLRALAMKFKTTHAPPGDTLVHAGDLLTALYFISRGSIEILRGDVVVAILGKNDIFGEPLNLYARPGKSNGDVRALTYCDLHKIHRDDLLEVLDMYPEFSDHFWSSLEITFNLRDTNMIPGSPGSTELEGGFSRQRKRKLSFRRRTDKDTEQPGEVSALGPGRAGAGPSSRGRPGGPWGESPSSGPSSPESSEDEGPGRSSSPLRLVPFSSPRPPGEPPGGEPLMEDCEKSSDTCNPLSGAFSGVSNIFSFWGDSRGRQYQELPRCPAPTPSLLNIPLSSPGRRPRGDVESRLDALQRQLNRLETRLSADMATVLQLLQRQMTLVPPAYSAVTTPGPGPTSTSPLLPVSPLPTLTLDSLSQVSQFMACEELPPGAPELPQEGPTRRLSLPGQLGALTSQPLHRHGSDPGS

Row | SMILES | hERG current change (%, negative = inhibition) at 10uM [%]
1 | O=C(NCc1ccc(F)cc1)c1ccc(S(=O)(=O)Nc2cccc(C(F)(F)F)c2)cc1 | 16.4
2 | Cc1c(C(=O)N2CCN(S(=O)(=O)c3ccccc3F)CC2)oc2c(Cl)cccc12 | -9.35
3 | CCc1c(C#N)c(=O)[nH]c(=O)n1-c1ccccc1 | 2.27
4 | CCCCOc1ccc(NC(=O)CN2CCN(CC)CC2)cc1.Cl | -15.9
5 | CCn1c(CC(=O)Nc2ccccc2F)nnc1SCC(=O)Nc1nnc(C)s1 | -22.2
6 | CCN=C1S/C(=C\c2ccc(O)c(OCC)c2)C(=O)N1CC | -2.56
7 | CC(C)C1CC(CCN2CCCCC2)(c2ccccc2)CCO1.Cl (stereo not shown) | -24.3
8 | O=C(Nc1ccccc1)C(Cc1ccccc1)NC(=O)C12CC3CC(CC(C3)C1)C2 (stereo not shown) | -3.81
9 | CC12CN3CC(C)(CN(C1)C3c1ccc([N+](=O)[O-])o1)C2=O (stereo not shown) | 8.24
10 | CNc1nc(C)cc(C)c1S(=O)(=O)c1ccc(Cl)cc1 | -4.93
11 | CCN(c1ccccc1C)S(=O)(=O)c1cc2c3c(c1)CCN3C(=O)CC2 | -14.4
12 | COc1cc(/C=N/NC(=O)c2ccc(COc3ccccc3Cl)o2)cc(Br)c1O | -15.1
13 | CNc1nc(Nc2ccc(C(C)=O)cc2)nc(OC(C(F)(F)F)C(F)(F)F)n1 | 13.9
14 | CCN(CC)CCNC(=O)c1cc2c(=O)n(CC)c3ccccc3c2s1 | -13.4
15 | Cc1ccc(S(=O)(=O)N2CCCCC2)cc1NC(=O)CN1C(=O)CN(C)C1=O | 21.1
16 | Nc1nonc1-c1noc(CCCCCN2C(=O)c3ccccc3C2=O)n1 | -3.42
17 | O=C(CCn1c(=O)sc2ccccc21)NC1=NCCS1 | 3.89
18 | COc1ccc2c(c1)nc(NCCO)n2C | 2.42
19 | Cn1c(Nc2ccccc2)cc(=O)n(C)c1=O | 17.3
20 | Cc1ccc([C@@H]2CC=C(C(=O)O)[C@H](c3ccccc3F)N2S(=O)(=O)c2ccc(C)cc2)cc1 | 10.3
21 | Cc1ccc(NC(=O)CCC(=O)NCCO)cc1 | 10.2
22 | Cc1ccc(S(=O)(=O)N2CCN(C(=O)Cn3cnc4c3c(=O)n(C)c(=O)n4C)CC2)cc1C | -12

Row | SMILES | hERG current change (%, negative = inhibition) at 10uM [%]
23 | COc1ccc(N2CCN(CC(=O)Nc3nc4c(s3)CC(C)CC4)CC2)cc1 (stereo not shown) | -26
24 | COc1ccccc1NC(=O)CSc1nc2ccccc2nc1N1CC(C)OC(C)C1 (stereo not shown) | 16.6
25 | CCOc1ccccc1CNC(=O)c1cn(C)c(=O)c2c1c1ccccc1n2C | 14.7
26 | COc1ccc(C2C(C#N)=C(N)Oc3cc(C)n(Cc4ccncc4)c(=O)c32)cc1 (stereo not shown) | -34.3
27 | CCOc1ccc(/C=N/NC(=O)Cn2ccnc2C)cc1 | -6.24
28 | Cc1cc(C)n(-c2ccc(Oc3ccccc3)c(S(=O)(=O)O)c2)n1 | 20.4
29 | CCCc1ccc2oc(C(=O)N(C)Cc3nccs3)c(C)c2c1 | -48.3
30 | O=C(Nc1ccccc1Cl)c1cc2ccccc2o/c1=N\O | 0.926
31 | COc1cccc2sc(Nc3nc(-c4cc5ccccc5oc4=O)cs3)nc12 | 13.7
32 | COc1cc(OC)cc(C(=O)Nc2ccn(C)n2)c1 | 22.3
33 | O=c1[nH]cccc1-c1nc2ccccc2n1Cc1ccc(F)cc1 | -22.5
34 | CCC1(C)NC(=O)N(CC(=O)NCC(=O)Nc2c(C)cc(C)cc2C)C1=O (stereo not shown) | 14.2
35 | Cc1ccc(S(=O)(=O)N2CCN(C(=O)NCc3ccc(F)cc3)CC2)c(C)c1 | 5.98
36 | CC(=O)Nc1nc(C(F)(F)F)cs1 | 7.96
37 | COc1ccc(-c2c(-c3ccc4c(c3)OCO4)noc2C)cn1 | -12.6
38 | Cc1ccccc1OCC(=O)NC(=S)Nc1ccccc1N1CCN(S(C)(=O)=O)CC1 | -4.59
39 | CCOC(=O)C1=C(CC)Nc2ccccc2N=C1NC(=O)Nc1ccccc1OC | 13.8
40 | Cn1cc(CN2CCCC(CNC(=O)c3ccc4c(c3)OCO4)C2)c2ccccc21 (stereo not shown) | -43.6
41 | COc1ccc(S(=O)(=O)N(C)CC(=O)NC2CCCC2)cc1Cl | 4.03
42 | Br.O=C(c1ccc(Br)cc1)c1sc(N2CCOCC2)nc1-c1ccccc1 | -1.44
43 | Nc1c(C(=O)N2CCCCC2)sc2nc3c(cc12)CCCC3 | 2.72
